Assay results taken from article PMC4336329 (PLoS ONE, 2015).
Out of some 310,000 compounds screened, about 2,200 (0.71%) showed an effect of 50% or more. Effects have a minus sign here. This is one part of the list.

target: human ether-à-go-go-related gene (hERG) potassium channel (human, UniProt Q12809); assay: primary screen, population patch clamp on CHO cells stably expressing hERG
Sequence (Q12809 whole entry, looked up): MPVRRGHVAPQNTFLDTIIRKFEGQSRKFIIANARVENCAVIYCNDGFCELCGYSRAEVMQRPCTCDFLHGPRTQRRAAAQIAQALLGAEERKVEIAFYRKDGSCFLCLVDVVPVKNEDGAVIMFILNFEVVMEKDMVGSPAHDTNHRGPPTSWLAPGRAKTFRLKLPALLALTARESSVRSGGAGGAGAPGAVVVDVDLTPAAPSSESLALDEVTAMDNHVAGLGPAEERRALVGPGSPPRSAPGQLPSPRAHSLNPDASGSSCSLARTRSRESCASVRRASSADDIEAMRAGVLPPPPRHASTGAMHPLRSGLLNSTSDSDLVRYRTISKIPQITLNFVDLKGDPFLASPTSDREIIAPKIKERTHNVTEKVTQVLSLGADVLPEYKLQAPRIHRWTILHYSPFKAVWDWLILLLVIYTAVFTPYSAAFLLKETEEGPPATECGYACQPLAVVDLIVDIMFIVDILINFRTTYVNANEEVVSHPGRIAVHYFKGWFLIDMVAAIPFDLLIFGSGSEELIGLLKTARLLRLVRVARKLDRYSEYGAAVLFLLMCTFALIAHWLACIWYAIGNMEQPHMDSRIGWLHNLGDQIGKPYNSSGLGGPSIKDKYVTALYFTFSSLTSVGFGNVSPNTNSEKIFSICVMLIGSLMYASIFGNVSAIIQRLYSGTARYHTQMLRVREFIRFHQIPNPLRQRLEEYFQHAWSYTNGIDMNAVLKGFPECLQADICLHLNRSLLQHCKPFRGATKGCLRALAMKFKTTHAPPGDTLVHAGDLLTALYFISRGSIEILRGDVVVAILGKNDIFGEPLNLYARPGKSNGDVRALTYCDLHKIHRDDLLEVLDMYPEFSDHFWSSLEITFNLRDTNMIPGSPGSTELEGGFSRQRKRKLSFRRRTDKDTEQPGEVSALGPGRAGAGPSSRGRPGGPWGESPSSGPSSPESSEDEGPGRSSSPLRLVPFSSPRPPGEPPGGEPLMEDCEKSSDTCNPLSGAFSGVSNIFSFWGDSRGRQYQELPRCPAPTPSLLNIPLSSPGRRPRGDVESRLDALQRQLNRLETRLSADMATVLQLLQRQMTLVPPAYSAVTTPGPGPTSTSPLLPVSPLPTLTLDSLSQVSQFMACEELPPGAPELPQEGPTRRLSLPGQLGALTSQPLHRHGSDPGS

Row | Compound | hERG current change (%, negative = inhibition) at 1uM [%]
1 | S=C(Nc1ccccc1Cl)N(CCN1CCCCC1)Cc1ccco1 | -16
2 | Cc1[nH]c(C)c(S(=O)(=O)Nc2cccc(Cl)c2C)c1C(=O)N1CCCC1 | 6.42
3 | O=C(c1cc([N+](=O)[O-])cc([N+](=O)[O-])c1)N1CCN(Cc2ccc3c(c2)OCO3)CC1 | -22.1
4 | COC(=O)CC(NC(=O)c1ccc(C)cc1)c1ccccc1 (stereo not drawn) | 11.8
5 | COC(=O)c1c(C)[nH]c(-c2csc(N)n2)c1C | 13.8
6 | CN(CC(=O)Nc1ccccc1Cl)C(=O)CN1C(=O)C2CCCCC2C1=O (stereo not drawn) | -1
7 | CCN(CC)C(=O)COn1c(SCC(=O)N(CC)CC)nc2ccccc2c1=O | -3.4
8 | COc1ccc(S(=O)(=O)NCC2CCCN(C(=O)CNC(C)=O)C2)cc1 (stereo not drawn) | 21.7
9 | Cc1ccc(N2CCN(C(=O)c3ccccc3)CC2)c(C)c1 | 9.08
10 | CCN(CC(=O)NCc1ccccn1)S(=O)(=O)c1ccc(OC)cc1 | 13.2
11 | COc1ccc(/C=C/C(=O)OCC(=O)Nc2ccc(C)cc2)cc1S(=O)(=O)N1CCOCC1 | -3.01
12 | COc1ccc(N2C(=O)CSC23C(=O)N2c4c(cccc43)C(C)=CC2(C)C)cc1 (stereo not drawn) | 7.29
13 | CN(C)CCCNS(=O)(=O)c1ccc(-n2nnc3ccccc32)c([N+](=O)[O-])c1 | 8.96
14 | COCCCn1c(=S)[nH]c2sc3c(c2c1=O)CCCC3 | 8.96
15 | CCCc1nnc(SCC(=O)Nc2ccc(NC(C)=O)cc2)n1-n1cccc1 | 1.06
16 | CCC(=NCC1CCCO1)c1c(O)[nH]c(=O)[nH]c1=O (stereo not drawn) | 1.97
17 | Cc1nn(C)c(C(=O)NNC(=S)NC2CCCCC2)c1Br | -1.69
18 | S=c1[nH]nc(CCc2nc3ccccc3[nH]2)n1-c1cccc(Cl)c1 | 19.1
19 | CC(C)NC(=O)c1cccc(Cn2cc(Cl)cn2)c1 | 7.33
20 | Cn1cccc1CNCCc1ccccc1F | -0.53
21 | CCNC(=S)NNc1nc(N2CCOCC2)nc(N2CCOCC2)n1 | 5.88
22 | Cn1c(=O)c2c(nc(CN3CCN(C(=O)c4ccco4)CC3)n2Cc2ccccc2)n(C)c1=O | -21.6
23 | CS(=O)(=O)N1CCC(C(=O)NCc2ccccc2)CC1 | 2.53

Row | Compound | hERG current change (%, negative = inhibition) at 1uM [%]
24 | CC1(C)Cc2nc3oc4c(=O)n(CC(=O)Nc5ccccc5)cnc4c3cc2CO1 | 9.96
25 | COc1ccc(NC(=O)CC2Oc3ccc(C)cc3NC2=O)cc1 (stereo not drawn) | 9.01
26 | COc1ccc(-c2csc(NC(=S)NC(=O)c3ccco3)n2)cc1 | 18.7
27 | N#CC1=C(N)SC(N)=C(C#N)C1C1CC=CCC1 (stereo not drawn) | 7.58
28 | Cc1ccc(CN2C(=O)c3ccccc3C2C(=O)NCC2CCCO2)cc1 (stereo not drawn) | -10.5
29 | CC(C)(C)c1ccc(COC(=O)Nc2ccc(F)cc2)cc1 | 13.6
30 | Cc1ccc(C)c(S(=O)(=O)NNC(=O)Nc2ccccc2Cl)c1 | 3.62
31 | CC1CCCCN1C(=O)c1cccc(NC2=C(Cl)C(=O)N(Cc3ccccc3)C2=O)c1 (stereo not drawn) | -0.379
32 | O=[N+]([O-])c1ccc(S(=O)(=O)c2ccccc2)nc1 | 11.2
33 | Cc1cccc(Nc2ncnc(N)c2[N+](=O)[O-])n1 | 0.289
34 | O=C(COc1cccc(NC(=O)c2cccc([N+](=O)[O-])c2)c1)c1ccc(Br)cc1 | 3.63
35 | Cc1cc(S(=O)(=O)N2CCCC(C)C2)ccc1-n1cnnn1 (stereo not drawn) | 11.9
36 | CC1(C)CC(=O)C(C=NCCN2CCN(C(=O)c3ccc(Br)cc3)CC2)=C(O)C1 | -11.6
37 | Cc1cc2oc(=O)cc(CNc3ccccc3F)c2cc1O | 15.3
38 | COc1ccc(CC(=O)OCC(=O)Nc2ccc(C(=O)Nc3ccc(OC)cc3)cc2)cc1 | 10.4
39 | Brc1ccc(/C=N/Nc2ccc3ccccc3n2)cc1 | 0.981
40 | CCN(Cc1ccccc1)C(=O)C1CCN(Cc2ccc(SC)cc2)CC1.O=C(O)C(=O)O | -44.5
41 | Cc1noc2ncnc(Sc3c(Cl)cccc3Cl)c12 | 8.7
42 | O=C(O)Cn1ccnc1 | 7.71
43 | CNC(=O)CSCc1c(F)cccc1Cl | 18.6
44 | CCCc1cc(=O)oc2cc(OCC(=O)Nc3ccc(CN4CCOCC4)cc3)c(Cl)cc12 | 8.6
45 | CCOC(=O)N1CCN(Cc2nc(N)nc(Nc3ccccc3C)n2)CC1 | -3.18
46 | O=c1[nH]ncc(N2CCCC2)c1Cl | 11

Row | Compound | hERG current change (%, negative = inhibition) at 1uM [%]
47 | Cc1cc(NC(=O)CSc2nnc(CNc3ccc(F)cc3)n2C2CCCCC2)no1 | -11.3
48 | CC(=O)Nc1ccc(NC(=O)C2CCCN2C(=O)Nc2cccc(F)c2)cc1 (stereo not drawn) | 22.6
49 | COc1ccc(C(=O)CSc2nnnn2C)c(OC)c1 | 15.3
50 | Cc1nc(Cl)c(C(=O)NCCc2ccccc2)c(C)c1[N+](=O)[O-] | 17.3
51 | O=C(NCc1ccccn1)Nc1ccc(F)cc1 | 12.7
52 | CCc1nnc(NC(=O)C2CCCCN2S(=O)(=O)c2ccccc2)s1 (stereo not drawn) | 6.81
53 | COc1ccc(/C=C/c2cc(-c3ccc(C)cc3)o[n+]2C)cc1.F[B-](F)(F)F | -76.5
54 | CCOc1ccc(N2CC(C(=O)NC3=NCCS3)CC2=O)cc1 (stereo not drawn) | 8
55 | COc1cc(NS(=O)(=O)c2ccc(NC(=S)NC(=O)c3ccc(Br)cc3)cc2)ncn1 | 13.4
56 | Cc1nnc(SCC(=O)Nc2nc(-c3ccccc3)cs2)n1N | -0.585
57 | O=C(CSc1nnc(-c2ccncc2)o1)NCc1ccccc1Cl | 12
58 | O=C1CN(C(=O)/C=C/c2ccccc2F)c2ccccc2N1 | 12.8
59 | N/C(=N\OC(=O)COc1ccc(Br)cc1)c1cccnc1 | 2.12
60 | Cc1cc(-n2c(C)cc(C(=O)COc3ccc(F)c(F)c3)c2C)no1 | 5.98
61 | O=C(O)c1cc(NS(=O)(=O)c2ccc(N3CCOCC3)c([N+](=O)[O-])c2)cc(C(=O)O)c1 | 14.2
62 | Cc1occc1C(=O)NNC(=O)NC12CC3CC(CC(C3)C1)C2 | 10.1
63 | CCCC(=O)N1c2ccc(-c3csc(N)n3)cc2CC1C (stereo not drawn) | 5.64
64 | O=C(CNc1cc(S(=O)(=O)N2CCCC2)ccc1OCC(F)(F)F)Nc1ccc(SC(F)F)cc1 | 4.34
65 | CNC(=S)N(Cc1ccc(OC)cc1)Cc1cc2ccc(C)cc2[nH]c1=O | 19
66 | CCC(=O)Nc1cc(C(=O)O)ccc1Sc1ccccc1 | 22.1
67 | O=c1[nH]c2ccc(Cl)cc2c(O)c1Cc1ccccc1 | 15.8
68 | COc1ccccc1/C=C/C(=O)NC(=S)N(C)C1CCCCC1 | 6.12
69 | Cc1cccc(C)c1NC(=O)CN(c1ccccn1)S(=O)(=O)c1ccccc1 | 10.5

Row | Compound | hERG current change (%, negative = inhibition) at 1uM [%]
70 | CCOc1ccc(C(=O)Nc2cccc(-n3cnnn3)c2)cc1OCC | -11.4
71 | Cc1ccc(-c2nc(C#N)c(N3CCCCC3)o2)cc1 | 9.81
72 | CCc1cccc(NC(=O)c2ccc3c(=O)n4c(nc3c2)CCCCC4)c1 | -29.8
73 | COc1cc(OC)cc(C(=O)N2CCN(c3ccc(N4CCOCC4)nn3)CC2)c1 | 9.83
74 | Cc1cccc(Nc2cc(C)nc3ccccc23)c1.Cl | -33.5
75 | CCOC(=O)C1CCN(C(=O)c2ccc3c(=O)n4c(nc3c2)CCCCC4)CC1 | 0.974
76 | CC1CCCN(S(=O)(=O)CCNC(=O)c2ccc3c(c2)OCO3)C1 (stereo not drawn) | 9.47
77 | CCOc1ccc(C(C(=O)NC2CCCCC2)N(C(=O)c2ccco2)c2ccc(-n3cnnn3)c(C)c2)cc1 (stereo not drawn) | 3.26
78 | COc1ccc(CCNc2cc(C)nc3c(-c4ccccc4)cnn23)cc1OC | 13
79 | CCN(Cc1ccc(OC)c(F)c1)C(=O)CCl | 41.9
80 | On1c(-c2ccc(Cl)cc2)nc2ccccc21 | 9.87
81 | Cc1ccc(N=C2S/C(=C\c3cn(CC(=O)O)c4ccccc34)C(=O)N2C)cc1 | 13.9
82 | O=C1NC(c2ccccc2)=CC(c2ccccc2)N1 (stereo not drawn) | 16.9
83 | Cc1ccc(NC(=O)CSc2nnc(CNC(=O)c3cccs3)o2)c(C)c1 | 3.77
84 | O=C(COC(=O)COc1ccc2ccccc2c1)NC1CCCc2ccccc21 (stereo not drawn) | 7.86
85 | CN1c2ccc(C=O)c3c(C=O)ccc(c23)N(C)C1(C)C | -7.62
86 | O=C(CN(Cc1ccccc1)C(=O)CCC(=O)Nc1nccs1)NCC1CCCO1 (stereo not drawn) | 12.5
87 | Cc1cc(C(=O)Cn2nnc(-c3ccc(Cl)cc3)n2)c(C)n1CC1CCCO1 (stereo not drawn) | 7.36
88 | CCCn1c(C2CCCN2c2nc(-c3cccc(Br)c3)cs2)nc2cc(Cl)c(Cl)cc21 (stereo not drawn) | 6.33
89 | Cc1nnc(C)n1N | 8.16
90 | Cc1cc(C)cc(N(CC(=O)NC2CCCC2)C(=O)CCC(=O)Nc2cc(C)ccn2)c1 | 13.8
